# From PubChem BioAssay AID485344 (National Center for Advancing Translational Sciences (NCATS), 2010)
# In all, about 340,000 compounds went through this assay and about 6,900 (2%) were called active. Cut-off read from the data, not from the text of the source: active = inhibition above about 30%; inactive = below that, where a call was filed. The entries are a selection whose mix differs from that of the whole data set. Entries without a call were filed so in the source.
# Biological target: D(2) dopamine receptor (Homo sapiens) (UniProt P14416)
# Chain of UniProt P14416 (P14416 whole entry, looked up): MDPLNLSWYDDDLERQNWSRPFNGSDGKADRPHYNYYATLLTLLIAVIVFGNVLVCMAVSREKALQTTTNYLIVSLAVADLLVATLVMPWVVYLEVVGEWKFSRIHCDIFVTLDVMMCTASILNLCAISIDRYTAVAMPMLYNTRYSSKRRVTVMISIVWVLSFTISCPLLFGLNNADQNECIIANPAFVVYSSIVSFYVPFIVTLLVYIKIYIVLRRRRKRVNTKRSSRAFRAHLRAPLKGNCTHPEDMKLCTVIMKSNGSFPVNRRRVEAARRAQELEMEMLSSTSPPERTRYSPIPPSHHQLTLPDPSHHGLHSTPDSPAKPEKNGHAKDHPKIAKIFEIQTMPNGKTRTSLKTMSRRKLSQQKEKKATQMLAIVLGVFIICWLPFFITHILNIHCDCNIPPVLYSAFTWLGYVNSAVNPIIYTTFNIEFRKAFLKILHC
# Assay: HTS Assay for Allosteric Antagonists of the Human D2 Dopamine Receptor: Primary Screen for Antagonists; note: 0% is about no effect
# Details: HEK293 TREx D2 cells, calcium flux, dopamine EC80; at 10 µM; stronger effect = higher value
# Procedure, shortened: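 Calcium flux kinetic readout in an inducible HEK293 TREx D2 line plated overnight at 30 C. After 180 s compound exposure, an EC80 dopamine challenge follows with another 180 s kinetic read to detect antagonism.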
row,Compound,inhibition
1,CCC(Oc1ccccc1)C(=O)Nc1ccc2oc(-c3ccc(OC)cc3)nc2c1 (stereo not given),-4.6%
2,CCc1cccc(C)c1NC(=O)CSc1nc2ccccc2nc1N1CCOCC1,4.31%
3,COc1ccc(Cn2c(SCc3ccc(C(=O)NCc4cccs4)cc3)nc3cccnc32)cc1,-12%
4,COc1ccccc1CN1C(=O)CN(C2CCCCCC2)C(=O)C1c1ccc(C)cc1 (stereo not given),-11.8%
5,Cc1cc(F)ccc1NS(=O)(=O)c1c(C)nc2scc(C)n2c1=O,-15.5%
6,CSc1ccc(CCNC(=O)CN2C(=O)c3cccnc3Oc3ccc(C)cc32)cc1,-5.12%
7,Cc1ccc2c(=O)cc(C(=O)N(Cc3ccc(N(C)C)cc3)C3CCS(=O)(=O)C3)oc2c1 (stereo not given),-0.308%
8,CCCN1CCN(CCCNC(=O)Cn2nc(CC)n3c(cc4occc43)c2=O)CC1,16%
9,Cc1cccc(NC(=O)Cn2nnc(C(=O)Nc3ccccc3Br)c2N)c1C,-6.99%
10,Cn1cc(C(=O)NCc2ccccc2)c(=O)c2cc(S(=O)(=O)N3CCOCC3)ccc21,1.64%
11,O=C(NC1CC(=O)N(c2ccc(Cl)cc2)C1)c1ccc2c(c1)OCO2 (stereo not given),-20.1%
12,CCOc1ccccc1NC(=O)c1nc2nc(C)cc(C(F)F)n2n1,2.41%
13,COc1cccc(N2CCN(C(=O)C3CCN(S(=O)(=O)c4c(C)noc4C)CC3)CC2)c1,-4.98%
14,Cc1ccc(S(=O)(=O)N(CCc2ccccc2)CC(=O)Nc2cc(C)ccc2C)cc1,19.7%
15,Cc1cccc(N2CCN(Cc3nc(-c4ccccc4Cl)oc3C)CC2)n1,active: 39.5%
16,CN1CCC(=O)N(CCSc2ccc(Br)cc2)CC1,active: 53.5%
17,CN(C)S(=O)(=O)c1ccc(C(=O)NC2CC(=O)N(c3ccc4c(c3)OCCO4)C2)cc1 (stereo not given),-15%
18,CCOC(=O)c1cc(-c2ccc(C)cc2)n(CCC(=O)Nc2ccc(C(C)C)cc2)c1C,1.08%
19,COc1cc(C2C(C(=O)Nc3ccc(C)cc3C)=C(C)Nc3nc4ccccc4n32)cc(OC)c1OC (stereo not given),-0.76%
20,Cc1cccc(NC(=O)CS(=O)(=O)c2nc(-c3ccccc3)cn2-c2cccc(Cl)c2)c1C,14.9%

row,Compound,inhibition
1,CC(=O)N1CCCc2cc(S(=O)(=O)N(C)CC(=O)Nc3cccc(C)c3C)ccc21,-4.45%
2,CCOc1ccc(CCNC(=O)c2cn(CC)c3ccc(S(=O)(=O)N4CCCCCC4)cc3c2=O)cc1OCC,1.83%
3,O=C1c2[nH]nc(-c3ccccc3O)c2C(c2cccc(Cl)c2)N1Cc1cccnc1 (stereo not given),19.6%
4,CCOC(=O)c1sc(NC(=O)CSc2n[nH]c(-c3ccccc3)n2)c(C#N)c1C,active: 38.7%
5,Cc1cccc(CNC(=O)Cn2ccc3cc(S(=O)(=O)N4CCCC4)ccc32)c1,5.69%
6,Cc1cccc2c1N(CCOc1ccccc1Cl)C(=O)C2=O,active: 30.4%
7,CCCCN1CC(c2nc3ccccc3n2CCCCOc2ccc(C)c(C)c2)CC1=O (stereo not given),13.7%
8,COc1ccc(OC)c(NS(=O)(=O)c2ccc3[nH]c4c(c3c2)CCCCC4)c1,5.63%
9,Cc1ccc(F)c(NC(=O)Nc2ccc3snnc3c2)c1,-11.1%
10,Cc1[nH]c2ccc(C(=O)NCCCN3CCCCCC3)cc2c1C,active: 61.7%
11,CNC(=O)C1CCC(Cn2c(=O)c3sccc3n(CC(=O)Nc3ccc(C)c(F)c3)c2=O)CC1 (stereo not given),-3.95%
12,COc1cc(NC(=O)CN2C(=O)CN(C)C(=O)c3ccccc32)cc(OC)c1OC,-19%
13,COc1ccc(C)cc1NC(=O)C1CCCN(S(=O)(=O)c2ccc3[nH]c(=O)ccc3c2)C1 (stereo not given),8.5%
14,O=C(C1CCCN(S(=O)(=O)c2cccc3cccnc23)C1)N1CCN(c2ccccc2F)CC1 (stereo not given),active: 37%
15,CCn1c2ccccc2c2cc(NC(=O)COc3cccc(C)c3)ccc21,1.42%
16,CCOc1ccc(CCNC(=O)Cn2ncc3c(=O)oc4ccc(C)cc4c32)cc1,0.955%
17,CCOC(=O)c1c(C)[nH]c(C)c1S(=O)(=O)N1CCC(C(=O)Nc2ccc(C)cn2)CC1,4.24%
18,CCOc1cc2[nH]c(=O)n(CCCC(=O)N3CCN(c4ccc(OC)cc4)CC3)c(=O)c2cc1OCC,-26.1%
19,O=C(c1ccc(CSc2nc3ccncc3n2Cc2cccc(F)c2)cc1)N1CCCCC1,4.85%
20,CCOc1ccc(N(CC(=O)NCc2ccc(C)cc2)S(=O)(=O)c2c(C)noc2C)cc1,0.798%

row,Compound,inhibition
1,CCOC(=O)c1c(C)oc2ccc(N(C(=O)c3ccncc3)S(=O)(=O)c3ccc(Br)cc3)cc12,15.7%
2,CC1=C(c2ccc(C(C)C)cc2)S(=O)(=O)NC1=NCc1ccccc1Br,15.3%
3,Cc1cccc(NC(=O)Cn2c(=O)nc(-c3ccccc3)c3ccccc32)c1C,-1.53%
4,CCC(=O)N1c2ccccc2CC1C(=O)NCCc1ccc(C)cc1 (stereo not given),-12.3%
5,CCN(CC)CCNC(=O)c1nn(C)c2c1CS(=O)(=O)c1ccccc1-2,-7.74%
6,CCOC(=O)c1ccc(N2C(=O)c3n[nH]c(-c4ccco4)c3C2c2ccc(O)c(OC)c2)cc1 (stereo not given),22.8%
7,Cc1ccc(CNC(=O)c2nn(C)c3c2CS(=O)(=O)c2ccccc2-3)cc1,-10.5%
8,Cc1cc(NC2CCCCC2)nc2ccccc12,active: 44%
9,Cc1cc(NC(=O)CCC(=O)N(C2CC2)C2(C(=O)NC3CCCC3)CCC(C)CC2)no1 (stereo not given),active: 37.2%
10,O=C(CSCc1nc2cccnc2n1C1CCCCC1)NCc1cccc(Cl)c1,4.61%
11,COc1ccc(-n2nc(C(=O)N3CCN(c4cccc(C)c4C)CC3)c3c4ccccc4n(C)c3c2=O)cc1,-14.2%
12,CNC(=O)COc1ccc(NC(=O)CCn2nc(-c3ccc(C)cc3)c3ccccc3c2=O)cc1,-11.5%
13,O=C(Nc1nc2nc(-c3ccccc3)cc(=O)n2[nH]1)c1ccc(Cl)cc1,12.6%
14,CCC(C)OC(=O)/C(C#N)=C\c1ccc(-c2ccccc2Cl)o1 (stereo not given),-0.119%
15,COc1cc(OC)c(NS(=O)(=O)c2cc(-c3cnc(C)o3)ccc2OC)cc1Cl,-17.7%
16,Cc1ccc(NC(=O)CN2C(=O)CCn3nc(-c4cccn4C)cc32)cc1,-2.05%
17,CCOc1ccc(OCC)c(NC(=O)CCC(=O)N2CCOc3ccccc32)c1,5.04%
18,CCCC1=Nc2cc(C(=O)NCCc3ccc(OC)cc3OC)ccc2Sc2ccccc21,-6.44%
19,CSc1ncc(C(=O)Nc2ccc(F)cc2F)c(-c2ccccc2)n1,-2.2%
20,Cc1ccc2oc(-c3cc(NC(=O)c4ccco4)ccc3Cl)nc2c1,-3.96%
